# Laboratory results reported in the supplement of paper PMC12217912.
# The list shows a part of the results. The full chains were built here from the parent and the listed change. Inactive controls read about 0.05.
# B1: TEV protease; numbered along this chain (parent)
# chain: MGESLFKGPRDYNPISSSICHLTNESDGHTTSLYGIGFGPFIITNKHLFRRNNGTLVVQSLHGVFKVKDTTTLQQHLVDGRDMIIIRMPKDFPPFPQKLKFREPQREERICLVTTNFQTKSMSSMVSDTSCTFPSGDGIFWKHWIQTKDGQCGSPLVSTRDGFIVGIHSASNFTNTNNYFTSVPKNFMELLTNQEAQQWVSGWRLNADSVLWGGHKVFMVKPEEPFQPVKEATQL
# Variants of: B1
# Assay: raw area under fraction-flipped curve 0-4 h after induction (AUC4h, not background-subtracted), DNA-recorder readout of cleavage of the substrate (dimensionless); higher = more cleavage of the substrate by the protease variant
# Settings: temperature: 34 °C; time window: 0-4 h after rhamnose induction
# Experimental: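 In vivo DNA recorder in E. coli TOP10(DE3) ΔrhaA at 34 °C. Each TEVp single-site mutant (parent TEVp 0) is paired with a single-site variant of the 7-mer TEVs (canonical ENLYFQ|S). The substrate sits between flexible linkers in a Bxb1-sfGFP-TEVs-SsrA fusion, so cleavage stabilises Bxb1 and speeds flipping of a recombination array, read by NGS. The value is the raw area under the fraction-flipped curve over 0-4 h after rhamnose induction (AUC4h), with ≥20 reads per time point. It is not background-subtracted; inactive controls average about 0.047.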
# 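Note: Bxb1 expression induced with 0.2% (w/v) L-rhamnose at OD600 near 0.5, cultures sampled hourly, flipped fraction per protease–substrate barcode pair counted by paired-end Illumina sequencing.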
variant,measurement,value
S16H,area with substrate ENLYFQC,0.126
same,area with substrate ENLYFQD,0.06
same,area with substrate ENLYFQG,0.114
same,area with substrate ENLYFQH,0.079
same,area with substrate ENLYFQI,0.065
same,area with substrate ENLYFQL,0.0585
same,area with substrate ENLYFQM,0.0938
same,area with substrate ENLYFQN,0.0726
same,area with substrate ENLYFQP,0.0524
same,area with substrate ENLYFQR,0.0434
same,area with substrate ENLYFQS,0.0981
same,area with substrate ENLYFQT,0.065
same,area with substrate ENLYFQW,0.0646
S16L,area with substrate ENLYFQC,0.0948
same,area with substrate ENLYFQD,0.08
same,area with substrate ENLYFQG,0.0753
same,area with substrate ENLYFQI,0.0481
same,area with substrate ENLYFQK,0.0586
same,area with substrate ENLYFQL,0.0684
same,area with substrate ENLYFQM,0.0949
same,area with substrate ENLYFQN,0.0819
same,area with substrate ENLYFQP,0.0395
same,area with substrate ENLYFQQ,0.0637
same,area with substrate ENLYFQR,0.0596
same,area with substrate ENLYFQS,0.0965
same,area with substrate ENLYFQT,0.0626
same,area with substrate ENLYFQV,0.066
same,area with substrate ENLYFQY,0.08
N24D,area with substrate ENLYFQC,0.0667
same,area with substrate ENLYFQD,0.089
same,area with substrate ENLYFQF,0.0628
same,area with substrate ENLYFQG,0.0662
same,area with substrate ENLYFQH,0.0856
same,area with substrate ENLYFQI,0.0648
same,area with substrate ENLYFQK,0.0587
same,area with substrate ENLYFQL,0.0565
same,area with substrate ENLYFQM,0.083
same,area with substrate ENLYFQN,0.0621
same,area with substrate ENLYFQR,0.0864
same,area with substrate ENLYFQS,0.0756
same,area with substrate ENLYFQT,0.0596
same,area with substrate ENLYFQV,0.0553
same,area with substrate ENLYFQW,0.0483
same,area with substrate ENLYFQY,0.0659
S32I,area with substrate ENLYFQC,0.106
same,area with substrate ENLYFQF,0.0399
same,area with substrate ENLYFQG,0.0876
same,area with substrate ENLYFQH,0.0823
same,area with substrate ENLYFQI,0.061
same,area with substrate ENLYFQL,0.058
same,area with substrate ENLYFQM,0.0963
same,area with substrate ENLYFQN,0.108
same,area with substrate ENLYFQP,0.056
same,area with substrate ENLYFQR,0.0522
same,area with substrate ENLYFQS,0.107
same,area with substrate ENLYFQT,0.0583
same,area with substrate ENLYFQW,0.0617
same,area with substrate ENLYFQY,0.0651
P40I,area with substrate ENLYFQC,0.094
same,area with substrate ENLYFQD,0.073
same,area with substrate ENLYFQG,0.0743
same,area with substrate ENLYFQH,0.073
same,area with substrate ENLYFQI,0.0579
same,area with substrate ENLYFQK,0.0593
same,area with substrate ENLYFQL,0.0436
same,area with substrate ENLYFQM,0.0716
same,area with substrate ENLYFQN,0.0679
same,area with substrate ENLYFQP,0.0556
same,area with substrate ENLYFQR,0.0509
same,area with substrate ENLYFQS,0.0905
same,area with substrate ENLYFQT,0.0691
same,area with substrate ENLYFQV,0.0523
same,area with substrate ENLYFQW,0.0557
P40K,area with substrate ENLYFQC,0.117
same,area with substrate ENLYFQD,0.0663
same,area with substrate ENLYFQG,0.0934
same,area with substrate ENLYFQI,0.0657
same,area with substrate ENLYFQK,0.0722
same,area with substrate ENLYFQL,0.0786
same,area with substrate ENLYFQM,0.0973
same,area with substrate ENLYFQN,0.0613
same,area with substrate ENLYFQQ,0.0773
same,area with substrate ENLYFQR,0.0621
same,area with substrate ENLYFQS,0.108
same,area with substrate ENLYFQT,0.055
same,area with substrate ENLYFQV,0.0609
same,area with substrate ENLYFQW,0.0944
same,area with substrate ENLYFQY,0.0421
P40N,area with substrate ENLYFQC,0.109
same,area with substrate ENLYFQD,0.0769
same,area with substrate ENLYFQI,0.0672
same,area with substrate ENLYFQK,0.0625
same,area with substrate ENLYFQL,0.0569
same,area with substrate ENLYFQM,0.0984
same,area with substrate ENLYFQR,0.0498
same,area with substrate ENLYFQS,0.112
same,area with substrate ENLYFQT,0.0701
same,area with substrate ENLYFQV,0.0549
same,area with substrate ENLYFQW,0.0428
same,area with substrate ENLYFQY,0.0703
L48A,area with substrate ENLYFQC,0.0675
same,area with substrate ENLYFQD,0.0673
same,area with substrate ENLYFQG,0.0711
same,area with substrate ENLYFQH,0.0745
same,area with substrate ENLYFQI,0.0615
same,area with substrate ENLYFQK,0.0628
same,area with substrate ENLYFQL,0.0559
same,area with substrate ENLYFQM,0.0681
same,area with substrate ENLYFQN,0.0558
same,area with substrate ENLYFQP,0.0515
same,area with substrate ENLYFQQ,0.0652
same,area with substrate ENLYFQR,0.0639
same,area with substrate ENLYFQS,0.0866
same,area with substrate ENLYFQT,0.0641
same,area with substrate ENLYFQV,0.0633
same,area with substrate ENLYFQW,0.0464
same,area with substrate ENLYFQY,0.0705
L48F,area with substrate ENLYFQC,0.108
same,area with substrate ENLYFQG,0.117
same,area with substrate ENLYFQH,0.0935
same,area with substrate ENLYFQK,0.0636
same,area with substrate ENLYFQL,0.0682
same,area with substrate ENLYFQM,0.102
same,area with substrate ENLYFQN,0.0698
same,area with substrate ENLYFQR,0.0629
same,area with substrate ENLYFQS,0.105
same,area with substrate ENLYFQT,0.0758
same,area with substrate ENLYFQV,0.0636
same,area with substrate ENLYFQW,0.0787
same,area with substrate ENLYFQY,0.0796
L48Q,area with substrate ENLYFQC,0.0581
same,area with substrate ENLYFQE,0.0724
same,area with substrate ENLYFQF,0.0727
same,area with substrate ENLYFQG,0.0735
same,area with substrate ENLYFQH,0.0666
same,area with substrate ENLYFQI,0.0471
same,area with substrate ENLYFQK,0.0536
same,area with substrate ENLYFQL,0.0612
same,area with substrate ENLYFQM,0.0562
same,area with substrate ENLYFQN,0.0551
same,area with substrate ENLYFQR,0.0627
same,area with substrate ENLYFQS,0.0622
same,area with substrate ENLYFQT,0.0528
same,area with substrate ENLYFQV,0.0575
same,area with substrate ENLYFQY,0.0596
G54I,area with substrate ENLYFQC,0.0728
same,area with substrate ENLYFQD,0.0701
same,area with substrate ENLYFQF,0.0573
same,area with substrate ENLYFQI,0.0549
same,area with substrate ENLYFQK,0.0524
same,area with substrate ENLYFQM,0.0664
same,area with substrate ENLYFQN,0.0699
same,area with substrate ENLYFQR,0.054
same,area with substrate ENLYFQS,0.0688
same,area with substrate ENLYFQT,0.0544
same,area with substrate ENLYFQW,0.0585
same,area with substrate ENLYFQY,0.0587
L56Y,area with substrate ENLYFQC,0.057
same,area with substrate ENLYFQD,0.0746
same,area with substrate ENLYFQE,0.0755
same,area with substrate ENLYFQF,0.0449
same,area with substrate ENLYFQG,0.0404
same,area with substrate ENLYFQH,0.0579
same,area with substrate ENLYFQK,0.0489
same,area with substrate ENLYFQL,0.0513
same,area with substrate ENLYFQM,0.0561
same,area with substrate ENLYFQN,0.0683
same,area with substrate ENLYFQP,0.0684
same,area with substrate ENLYFQR,0.0555
same,area with substrate ENLYFQS,0.0582
same,area with substrate ENLYFQT,0.0464
same,area with substrate ENLYFQV,0.0529
same,area with substrate ENLYFQW,0.0545
same,area with substrate ENLYFQY,0.0239
